# The whole screen tested about 310,000 compounds, of which about 2,200 (0.71%) showed an effect of 50% or more. Effects have a minus sign here. Some of the results follow.
# Molecular target: human ether-à-go-go-related gene (hERG) potassium channel (human, UniProt Q12809)
# Test: primary screen, population patch clamp on CHO cells stably expressing hERG
# Sequence of human ether-à-go-go-related gene (hERG) potassium channel (Q12809 whole entry, looked up): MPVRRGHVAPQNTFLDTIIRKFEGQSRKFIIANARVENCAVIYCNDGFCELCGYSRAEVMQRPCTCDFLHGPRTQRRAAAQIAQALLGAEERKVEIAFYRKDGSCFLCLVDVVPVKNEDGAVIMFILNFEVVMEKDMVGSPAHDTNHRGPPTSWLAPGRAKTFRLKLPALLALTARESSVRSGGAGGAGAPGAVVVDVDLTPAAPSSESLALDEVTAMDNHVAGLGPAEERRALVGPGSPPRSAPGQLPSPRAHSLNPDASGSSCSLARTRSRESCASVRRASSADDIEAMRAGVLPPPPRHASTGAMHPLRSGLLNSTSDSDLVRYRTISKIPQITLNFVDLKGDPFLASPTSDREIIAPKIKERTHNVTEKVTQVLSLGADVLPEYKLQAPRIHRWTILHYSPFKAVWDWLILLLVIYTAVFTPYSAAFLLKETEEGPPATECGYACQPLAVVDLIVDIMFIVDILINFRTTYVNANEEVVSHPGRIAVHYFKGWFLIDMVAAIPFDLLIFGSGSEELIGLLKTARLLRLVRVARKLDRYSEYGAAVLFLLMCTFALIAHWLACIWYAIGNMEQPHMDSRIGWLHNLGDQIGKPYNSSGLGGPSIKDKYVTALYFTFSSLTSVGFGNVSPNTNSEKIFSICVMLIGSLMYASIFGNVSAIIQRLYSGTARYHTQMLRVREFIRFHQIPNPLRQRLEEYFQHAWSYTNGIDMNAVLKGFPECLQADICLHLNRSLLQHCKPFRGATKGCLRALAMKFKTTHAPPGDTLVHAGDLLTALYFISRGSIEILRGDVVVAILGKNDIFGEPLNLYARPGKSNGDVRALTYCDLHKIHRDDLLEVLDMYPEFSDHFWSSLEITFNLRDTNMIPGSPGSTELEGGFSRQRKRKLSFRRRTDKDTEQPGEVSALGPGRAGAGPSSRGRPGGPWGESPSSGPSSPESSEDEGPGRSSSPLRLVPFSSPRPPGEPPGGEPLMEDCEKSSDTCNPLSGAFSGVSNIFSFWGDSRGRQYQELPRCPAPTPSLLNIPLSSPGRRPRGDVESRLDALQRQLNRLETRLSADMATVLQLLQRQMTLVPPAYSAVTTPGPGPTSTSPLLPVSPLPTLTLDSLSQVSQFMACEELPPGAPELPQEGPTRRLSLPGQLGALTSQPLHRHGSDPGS
row,Compound,"hERG current change (%, negative = inhibition) at 1uM [%]"
1,CCOc1ccc(N2C(=O)C(CC(=O)Nc3ccccc3)N(Cc3ccccn3)C2=S)cc1 (centres unmarked),10.1
2,CC(C)CN1CCN(Cc2ccccc2C(F)(F)F)CC1CCO (centres unmarked),8.39
3,O=C(Nc1ccc(F)cc1)C(Sc1nc2ccccc2[nH]1)c1ccccc1 (centres unmarked),8.36
4,COc1ccc(S(=O)(=O)N2CCCCC2)cc1NC(=O)c1cccs1,16.8
5,Cc1ccc(NCN2C(=O)c3ccccc3C2=O)c(C)c1,-3.84
6,CCOc1ccc(N2C(=O)/C(=C\c3ccc(O)c(OC)c3)S(=O)(=O)C2c2cccc([N+](=O)[O-])c2)cc1 (centres unmarked),20.8
7,O=C(/C=C/c1cccc([N+](=O)[O-])c1)Nc1cccc(NC(=O)c2cccs2)c1,7.83
8,COc1ccc(-n2nnnc2SCC(=O)Nc2cccc(NC(C)=O)c2)cc1OC,8.98
9,C/C(=N/NS(=O)(=O)c1cc(C)ccc1C)c1ccncc1,12.8
10,CCOc1ccc(C(=O)n2cc(C(=O)OC)c3ccccc32)cc1OCC,12.4
11,O=C(Cc1ccccc1[N+](=O)[O-])OCN1C(=O)c2ccccc2C1=O,11.4
12,CCOc1ccc(-c2cc(C(=O)N3CCCC3)c3ccccc3n2)cc1,15.7
13,COc1cc(/C=N/N=C2/C(=O)Nc3ccccc32)cc(OC)c1O,5.75
14,COc1ccc2ccccc2c1/C=N/NC(=O)c1cccc(C)c1,12.1
15,Cc1ccc(NC(=O)NCc2ccncc2)cc1Cl,3.82
16,O=c1oc2ccccc2cc1-c1ccccc1,17.6
17,CC(C)(C)c1ccc(-n2ncc3c2CCCC3NC(=O)c2csnn2)cc1 (centres unmarked),9.11
18,Cc1cccc(N2C(=O)CC(Sc3nc(C)c4c(n3)CCCC4)C2=O)c1 (centres unmarked),2.93
19,CC1CCC(C(C)C)C(OC(=O)CSc2nc(N)cc(=O)[nH]2)C1 (centres unmarked),14
20,CCc1ccc(NC(=O)Cn2nnc(C(=O)NCc3ccco3)c2N)cc1,15.6
21,O=C(Nc1ccncc1)c1ccc(Cl)c(S(=O)(=O)N2CCCCC2)c1,5.29
22,O=C(NC1CC(=O)c2sccc21)c1ccc(Cl)cc1Cl (centres unmarked),-3.93
23,CCOc1ccccc1NS(=O)(=O)c1ccc(-n2cccn2)cc1,3.25

row,Compound,"hERG current change (%, negative = inhibition) at 1uM [%]"
1,CCCc1cc(=O)[nH]c(SCC(=O)Nc2ccc(C)cc2)n1,4.16
2,O=C(O)CC1Sc2nnc(COc3ccc(Cl)cc3)n2N=C1c1ccccc1 (centres unmarked),16.8
3,CCCCn1nc(C(=O)Nc2ccccc2N2CCCC2)c2ccccc2c1=O,3.71
4,O=C(c1cccc(Oc2ccccc2)c1)N1CCN(c2ccccn2)CC1,4.42
5,CCCC1(CCC)C(=O)NC(=NCc2ccccc2)NC1=O,11.6
6,CC1(C)CC(=O)N(CC(=O)O)c2ccccc2S1,13.8
7,O=C(NC(=S)Nc1ccc(N2CCCCC2)cc1)c1ccco1,-16.6
8,COC(=O)c1[nH]c2ccc(F)cc2c1NC(=O)CCN1CC(C)OC(C)C1 (centres unmarked),14.6
9,CCOc1ccc(C(=O)CCC(=O)Nc2ccncc2)cc1,-0.519
10,CCC(C)NC(=O)c1cc(C)no1 (centres unmarked),12.3
11,COCCNC(=O)C(=O)NNS(=O)(=O)c1ccc2ccccc2c1,4.3
12,COc1ccccc1S(=O)(=O)Cc1ccc(C(=O)N2CCN(c3cccc(Cl)c3)CC2)o1,2.08
13,O=C(O)c1ccc(-n2c(-c3cc(-c4ccco4)[nH]n3)n[nH]c2=S)cc1,9.91
14,COc1ccc(-n2nnnc2-c2ccc(S(C)(=O)=O)cc2Cl)cc1,14.3
15,CC(=O)c1cccc(NC(=O)C(CC(C)C)NC(=O)C2CCCCC2)c1 (centres unmarked),3.65
16,O=C(NCCc1ccc(Cl)cc1)C1COc2ccccc2O1 (centres unmarked),-4.51
17,CCOC(=O)C1CCN(Cc2ccccc2C)CC1,13.4
18,COc1cc([N+](=O)[O-])ccc1NC(=O)Oc1ccc(NC(C)=O)cc1,7.14
19,COCCn1c(SCC(=O)Nc2ccccc2OC)nc2c([nH]c3ccccc32)c1=O,10.6
20,CCOC(=O)CCCNC(=O)CCNC(=O)c1ccc(OCCC(C)C)cc1,8.59
21,Brc1ccc(-c2csc(/N=C/N3CCCC3)n2)cc1,-5.23
22,Cl.OC(COCCC12CC3CC(CC(C3)C1)C2)CN1CCCCC1 (centres unmarked),1.22
23,C/C(CCc1ccc2c(c1)OCO2)=N\NC(=O)c1ccccc1Br,4.54

row,Compound,"hERG current change (%, negative = inhibition) at 1uM [%]"
1,O=C(COC(=O)c1cccc(Br)c1)NCCc1ccc(F)cc1,7.07
2,O=C(CNC(=O)c1ccccc1Br)N/N=C/c1cccnc1,17.6
3,Nc1nc(Oc2ccc(F)cc2)c(Br)c(=O)[nH]1,12
4,CC(=O)[C@@H]1[C@@H](C(=O)c2ccccc2)[C@]2(C(=O)Nc3ccccc32)[C@H]2C=Cc3cc(F)ccc3N12,4.44
5,Cc1cc(NC(=O)c2cc(-c3ccccc3)on2)n(-c2ccccc2)n1,7.88
6,COc1cnc(-c2ccccn2)nc1Oc1cccc(Cl)c1,5.66
7,CCOC(=O)c1c(C)[nH]c(C)c1C(=O)COC(=O)/C=C/c1cccc(Cl)c1,11
8,O=C(Nc1cc(C(F)(F)F)ccc1N1CCOCC1)c1ccc[n+]([O-])c1,10.6
9,O=C(CN1C(=O)COc2ccccc21)N1CCN(C2CCCCC2)CC1,13.1
10,O=S(=O)(c1ccc2c(c1)OCCO2)N1CCCN(S(=O)(=O)c2c(F)cccc2F)CC1,6.58
11,Cc1ccc2[nH]c(C)c(CCNC(=O)NC3CCCCC3)c2c1,12.7
12,CCN(C(=O)COC(=O)CCc1c[nH]c2ccccc12)c1c(N)n(Cc2ccccc2)c(=O)[nH]c1=O,4.03
13,CCSc1nnc(NC(NC(=O)c2ccco2)(C(F)(F)F)C(F)(F)F)s1,3.49
14,COc1ccc(Cc2n[nH]c(=S)n2-c2ccc3c(c2)OCCO3)cc1,17.1
15,O=c1[nH]c(-[n+]2ccccc2)c(/C=N/N=C(\[O-])c2ccccc2)s1,2.36
16,CCSc1nnc2c(n1)[nH]c1c(C)cccc12,8.04
17,CC(C)CNC(=O)c1cc([N+](=O)[O-])ccc1N1CCOCC1,18.3
18,O=C(OCC[NH+]1CCOCC1)c1cccnc1.[Cl-],8.84
19,O=C(COC(=O)C1=COCCO1)NCc1ccc(F)cc1,5.48
20,Cc1nn(C)c(C)c1NC(=O)Nc1ccc(Cl)c(Cl)c1,5.18
21,COc1ccc(-n2nnnc2SCC(=O)Nc2ccccc2N2CCOCC2)cc1OC,4.54
22,CC(C)(C)c1ccc(Cn2c(=O)cnc3ccccc32)cc1,4.94
23,Cc1cccc(NC(=S)N(CCCN2CCOCC2)Cc2ccco2)c1,-5.79

row,Compound,"hERG current change (%, negative = inhibition) at 1uM [%]"
1,COC(=O)[C@H](Cc1c[nH]c2ccccc12)NC(=O)NCc1ccc(OC)c(OC)c1,13.8
2,O=[N+]([O-])c1ccc2c(c1)nc1n2CCSC1,9.89
3,Cc1ccc(S(=O)(=O)N2CCOCC2)cc1C(=O)NC1CCCCC1,8.88
4,Nc1n[nH]c(N)c1N=Nc1ccc(Cl)cc1Cl,0.961
5,N#Cc1ccc(-c2ccc(F)cc2)nc1Oc1ccccc1,11.3
6,Nc1ncc2[nH]cnc2n1.O=[N+]([O-])O,7.43
7,CN(C)c1ccc(/C=N/NC(=O)C(=O)/C=C2\NC3(CCCC3)Cc3ccccc32)cc1,11.8
8,Cc1cc(OCC(=O)N(Cc2ccco2)c2c(N)n(Cc3ccccc3)c(=O)[nH]c2=O)ccc1Cl,6.22
9,CCN(C(=O)c1sc(N)c(C#N)c1C)C1CCCCC1,7.77
10,COc1ccc(N(CC(=O)Nc2ccccc2C(=O)N2CCCC2)S(C)(=O)=O)cc1,16.2
11,O=C(O)C(F)(F)F.O=C1C(Cc2ccccc2)Nc2ncnc(N3CCCCC3)c2N1Cc1ccc(Cl)cc1 (centres unmarked),9.31
12,O=C(c1ccc(COc2ccccc2Br)cc1)N1CCCCC1,10.3
13,CC(=O)Nc1ccc(NC(=O)c2cccc(S(=O)(=O)N(C)C3CCCCC3)c2)cc1,14
14,COc1ccc([N+](=O)[O-])cc1N(CC(O)CN(C)C)S(=O)(=O)c1ccc(C)cc1 (centres unmarked),-9.26
15,Cc1ccc(NC(=S)N(Cc2ccccc2)Cc2cccs2)c(C)c1,7.07
16,O=c1c2ccccc2nc(/C=C/c2ccco2)n1-c1ccccc1O,-9.72
17,CC(=O)Nc1ccc(S(=O)(=O)NCC2CCC(C(=O)N3CC(C)CC(C)C3)CC2)cc1 (centres unmarked),11.7
18,COc1cc(N)c(Br)cc1C(=O)O,9.63
19,Cc1cc(C)n(CC(=O)c2ccc(Cl)cc2)n1,1.92
20,NC(=O)NOCc1c(F)cccc1Cl,19.3
